This is a selection; strong and weak results do not stand in their true shares. The list includes weakly bound sequences.
Columns and labels:
Test in all cases: protein-binding microarray (PBM)
Conditions in all cases: PBM: ~300 nM protein, 6 mM HEPES pH 7.8, 80 mM KCl, 0.5 mM EDTA, 0.5 mM EGTA, 6% glycerol, 35 ng/ul poly-dIdC, 1% milk, 1 h, room temperature; Ap Aiptasia and Nv Nematostella (sea anemones) / Co Capsaspora / Aq Amphimedon (sponge) / Dm Drosophila / Hu human; RHD is the Rel homology domain; high values mean tight binding; most listed sequences are background and not binding sites; double strand, one strand shown
GST-Ap-NF-kB RHD = target: T1, GST-Ap-NF-kB RHD (UniProt A0A913YAJ5)
T1 sequence: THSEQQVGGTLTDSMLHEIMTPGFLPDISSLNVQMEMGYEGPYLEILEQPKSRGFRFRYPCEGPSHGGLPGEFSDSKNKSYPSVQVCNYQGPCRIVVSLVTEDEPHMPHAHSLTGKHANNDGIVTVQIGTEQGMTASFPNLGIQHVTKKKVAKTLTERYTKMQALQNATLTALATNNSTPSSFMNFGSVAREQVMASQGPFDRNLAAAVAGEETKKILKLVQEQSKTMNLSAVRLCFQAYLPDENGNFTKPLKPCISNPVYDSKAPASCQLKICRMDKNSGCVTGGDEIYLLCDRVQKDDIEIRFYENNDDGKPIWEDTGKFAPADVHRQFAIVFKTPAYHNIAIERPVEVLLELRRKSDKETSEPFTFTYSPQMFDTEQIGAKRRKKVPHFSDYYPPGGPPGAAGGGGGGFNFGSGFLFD

[1] = target: T2, GST-Nv-NF-kB (Cys allele) (UniProt E5G601)
T2 sequence: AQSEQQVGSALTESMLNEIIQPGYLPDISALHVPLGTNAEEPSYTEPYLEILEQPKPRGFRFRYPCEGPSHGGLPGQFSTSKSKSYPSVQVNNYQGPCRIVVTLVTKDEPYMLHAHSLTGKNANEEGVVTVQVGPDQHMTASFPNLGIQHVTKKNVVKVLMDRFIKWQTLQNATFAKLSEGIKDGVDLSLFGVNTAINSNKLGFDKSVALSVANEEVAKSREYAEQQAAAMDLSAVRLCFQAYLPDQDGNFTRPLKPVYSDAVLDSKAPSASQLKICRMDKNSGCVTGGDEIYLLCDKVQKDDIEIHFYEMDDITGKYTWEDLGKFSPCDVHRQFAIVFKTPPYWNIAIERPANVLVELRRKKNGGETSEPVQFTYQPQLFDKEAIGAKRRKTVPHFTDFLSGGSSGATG

GST-Co-NF-kB = target: T3, GST-Co-NF-kB (UniProt F1ARL5)
T3 sequence: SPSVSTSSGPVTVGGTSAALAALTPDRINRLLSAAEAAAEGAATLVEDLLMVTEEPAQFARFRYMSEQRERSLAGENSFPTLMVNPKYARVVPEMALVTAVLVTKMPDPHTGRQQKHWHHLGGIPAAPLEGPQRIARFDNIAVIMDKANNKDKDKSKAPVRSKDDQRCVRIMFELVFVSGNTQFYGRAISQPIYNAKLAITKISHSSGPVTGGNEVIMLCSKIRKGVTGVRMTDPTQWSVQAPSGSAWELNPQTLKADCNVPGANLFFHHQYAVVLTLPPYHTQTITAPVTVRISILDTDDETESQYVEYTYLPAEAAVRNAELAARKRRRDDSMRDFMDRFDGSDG

GST-Dm-Relish = target: T4, GST-Dm-Relish (UniProt Q94527)
T4 sequence: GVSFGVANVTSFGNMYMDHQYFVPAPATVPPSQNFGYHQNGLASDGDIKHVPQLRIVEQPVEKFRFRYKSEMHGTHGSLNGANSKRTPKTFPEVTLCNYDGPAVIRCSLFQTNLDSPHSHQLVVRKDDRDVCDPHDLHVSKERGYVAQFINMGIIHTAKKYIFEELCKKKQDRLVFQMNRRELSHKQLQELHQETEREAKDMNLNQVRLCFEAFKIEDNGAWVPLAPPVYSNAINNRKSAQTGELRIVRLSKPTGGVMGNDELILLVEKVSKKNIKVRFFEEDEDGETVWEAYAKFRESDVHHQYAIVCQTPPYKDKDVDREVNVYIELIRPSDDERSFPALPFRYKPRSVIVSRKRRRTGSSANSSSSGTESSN

| Sequence | binding signal (GST-Ap-NF-kB RHD) | binding signal [1] | binding signal (GST-Co-NF-kB) | binding signal (GST-Dm-Relish) |
| --- | --- | --- | --- | --- |
| CCGATTAACATCAGGACTTTCCATGATGTTAATCGGGTCTTGATTCGCTTGACGCTGCTG | -0.177 z-score | 0.333 z-score | -0.629 z-score | 3.27 z-score |
| CCGATTAACATCAGACTTTTCCCTGATGTTAATCGGGTCTTGATTCGCTTGACGCTGCTG | 2.88 z-score | 4.94 z-score |  | 1.62 z-score |
| CCGATTAACATCAACGGAAATTCTGATGTTAATCGGGTCTTGATTCGCTTGACGCTGCTG | 0.646 z-score | -1.2 z-score |  | 0.757 z-score |
| CCGATTAACATCATAGTGAGGGGTGATGTTAATCGGGTCTTGATTCGCTTGACGCTGCTG | 2.05 z-score | 0.879 z-score | 1.74 z-score | 0.465 z-score |
| CCGATTAACATCAAAAGTTTCCCTGATGTTAATCGGGTCTTGATTCGCTTGACGCTGCTG | 5.05 z-score | 7.19 z-score |  | 4.85 z-score |
| CCGATTAACATCAGAAAACCCCATGATGTTAATCGGGTCTTGATTCGCTTGACGCTGCTG | 6.36 z-score | 5.53 z-score |  | 8.35 z-score |
| CCGATTAACATCAGACATGGGAATGATGTTAATCGGGTCTTGATTCGCTTGACGCTGCTG | 0.681 z-score | 1.46 z-score |  | 0.259 z-score |
| CCGATTAACATCACAAATGGGAATGATGTTAATCGGGTCTTGATTCGCTTGACGCTGCTG | 0.21 z-score | 1.95 z-score |  | 1.56 z-score |
| CCGATTAACATCAGGGGAAAGACTGATGTTAATCGGGTCTTGATTCGCTTGACGCTGCTG | 4.98 z-score | 6.57 z-score |  | 6.16 z-score |
| CCGATTAACATCAAAATTCCGGGTGATGTTAATCGGGTCTTGATTCGCTTGACGCTGCTG | 0.764 z-score | 0.996 z-score |  | 1.53 z-score |
| CCGATTAACATCAGGGGAATTAATGATGTTAATCGGGTCTTGATTCGCTTGACGCTGCTG | 6.97 z-score | 9.44 z-score |  | 7.21 z-score |
| CCGATTAACATCAAAGTCCCCCCTGATGTTAATCGGGTCTTGATTCGCTTGACGCTGCTG | 7.56 z-score | 6.37 z-score |  | 7.85 z-score |
| CCGATTAACATCACGGAAAGTCCTGATGTTAATCGGGTCTTGATTCGCTTGACGCTGCTG | 0.606 z-score | 0.42 z-score | -0.444 z-score | 3.12 z-score |
| CCGATTAACATCAAAATTTTTCCTGATGTTAATCGGGTCTTGATTCGCTTGACGCTGCTG | 0.427 z-score | 0.935 z-score |  | 2.86 z-score |
| CCGATTAACATCACCATTTCCCCTGATGTTAATCGGGTCTTGATTCGCTTGACGCTGCTG | 5.75 z-score |  | 6.17 z-score |  |
| CCGATTAACATCAGGGAAAGGTATGATGTTAATCGGGTCTTGATTCGCTTGACGCTGCTG | 2.16 z-score | 3.44 z-score |  | 0.32 z-score |
